# The full ranking holds about 33,000 sequences; the median of “E-score (-0.5 to 0.5)” is about -0.043, and the highest 2% start at about 0.37. The list shows a part of the results.
# Target: T1, Upc2 (UniProt Q12151)
# T1 sequence: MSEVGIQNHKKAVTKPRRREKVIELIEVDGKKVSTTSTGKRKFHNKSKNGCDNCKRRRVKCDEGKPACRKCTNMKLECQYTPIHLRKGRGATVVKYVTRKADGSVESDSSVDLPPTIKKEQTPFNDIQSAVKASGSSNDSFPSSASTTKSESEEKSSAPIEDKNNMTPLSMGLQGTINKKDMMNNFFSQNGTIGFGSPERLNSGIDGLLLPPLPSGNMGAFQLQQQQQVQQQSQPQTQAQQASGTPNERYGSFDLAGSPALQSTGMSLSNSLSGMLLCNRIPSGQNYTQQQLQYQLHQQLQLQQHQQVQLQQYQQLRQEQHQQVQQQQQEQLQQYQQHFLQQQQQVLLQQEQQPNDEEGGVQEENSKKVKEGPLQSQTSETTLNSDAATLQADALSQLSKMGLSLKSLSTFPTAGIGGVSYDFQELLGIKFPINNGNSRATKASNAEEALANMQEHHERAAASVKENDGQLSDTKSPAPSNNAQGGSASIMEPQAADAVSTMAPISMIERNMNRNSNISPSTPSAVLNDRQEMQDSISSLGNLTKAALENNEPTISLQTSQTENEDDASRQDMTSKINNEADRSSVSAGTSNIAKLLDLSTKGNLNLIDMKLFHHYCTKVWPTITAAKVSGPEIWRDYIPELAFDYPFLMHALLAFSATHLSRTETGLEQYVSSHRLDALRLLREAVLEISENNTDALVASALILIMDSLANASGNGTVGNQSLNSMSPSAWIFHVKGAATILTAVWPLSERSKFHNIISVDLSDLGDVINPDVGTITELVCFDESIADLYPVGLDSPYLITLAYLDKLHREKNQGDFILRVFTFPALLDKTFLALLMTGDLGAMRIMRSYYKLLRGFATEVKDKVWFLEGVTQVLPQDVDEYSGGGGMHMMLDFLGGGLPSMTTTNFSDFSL
# Test: PBM E-score (8-mer binding enrichment) (E-score (-0.5 to 0.5)); higher = stronger / more preferred TF binding; most listed sequences are background and not binding sites
# Conditions: protein concentration: 200 nM; construct: GST-full length
# Outline: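 PURExpress in vitro transcription/translation supplied GST-tagged yeast transcription factors, either full-length or DNA-binding domain. Applied at about 100-200 nM to universal all-10-mer Agilent arrays double-stranded by primer extension, the bound protein was detected with fluorescent anti-GST. E-scores, modified Wilcoxon-Mann-Whitney statistics, were given by the Universal PBM Analysis Suite to ungapped eight-base words pooled with their reverse complements after masliner normalisation.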
row,Sequence,PBM E-score
1,GGCGTACC,0.234
2,ATTAGGAG,-0.167
3,CCGATAAC,0.103
4,ACAGTGAT,0.155
5,AATGCGGG,-0.105
6,ATGGAAGC,-0.205
7,CAGACATC,-0.0749
8,GTTTTGAA,-0.00014
9,GGCGGTAA,0.155
10,AAACTTAG,-0.176
11,ATCTGCCC,-0.0503
12,TCGATACA,0.0336
13,CATAGATA,-0.184
14,TTCGCGAA,0.32
15,CGGAAAGC,-0.0301
16,AAGTAAGT,-0.0171
17,AACGGCAG,0.222
18,ACTTATAC,0.362
19,ATTGTGTC,-0.0367
20,CAATTCTC,-0.219
21,GATCTCGC,0.15
22,CTGCCGCC,-0.25

row,Sequence,PBM E-score
1,GTTGCCTA,-0.104
2,CAAGTTGA,0.00614
3,GACCATCA,-0.0233
4,AAAGTTAA,-0.0129
5,TACTATGA,0.0123
6,AGTCGGAC,0.0361
7,ATACCGCG,0.0301
8,ATTTATTG,-0.157
9,ATAGAAAG,-0.0817
10,GTTGGACA,-0.123
11,GAGCGCTC,0.0839
12,GCTGGGTA,-0.143
13,AACAGTAT,0.21
14,ACTTATGG,-0.159
15,CCATTGAG,-0.13
16,AACTTCTC,0.0927
17,CCGATTTC,-0.178
18,CCCCGCCC,0.138
19,ATACCAAA,-0.095
20,ATGCACTC,-0.0309
21,ACAGATAG,-0.144
22,ATTTCGTA,0.431

row,Sequence,PBM E-score
1,GGAGTTTA,-0.0511
2,AACGTTCC,0.152
3,CTTGAGAA,-0.148
4,AACGAGTG,0.414
5,TAACAGGA,0.0963
6,ATACTCCG,-0.0259
7,GCCGATAC,0.114
8,CGAAATGC,0.14
9,CACGCATC,0.179
10,GCTAGTGA,-0.115
11,CCGGTTAG,0.0696
12,CGGCGCAG,0.014
13,ACCCTCAT,-0.103
14,AGTACCAC,-0.0837
15,CTCCAAGA,-0.214
16,CTGGAGTC,-0.104
17,CTACCGAA,-0.0797
18,CGCCTAAC,0.0674
19,CAACAATA,-0.0351
20,ACCCCCCT,-0.151
21,TACTGTCA,-0.0273
22,AGGATTCA,-0.176

row,Sequence,PBM E-score
1,AATTGCGC,0.0799
2,CATGGTAA,0.0436
3,ACGTATAC,0.445
4,CTTTCCAC,-0.0832
5,GGCTAGTA,-0.0657
6,AGTTAGGA,-0.198
7,ACTTCCCG,0.0138
8,ACCCTCGT,0.419
9,CGTGGGCA,-0.329
10,CGTATCGA,0.317
11,AACATTGA,-0.00731
12,CCACTCGA,-0.013
13,CGTGAGAA,-0.0165
14,CGCGGGAC,-0.105
15,CATGGCAC,-0.112
16,CACTTCCG,-0.327
17,AGGAATGA,-0.148
18,GTGCGACA,0.106
19,AGTTAGTC,-0.117
20,ACGCAAGT,-0.0711
